In the supplement of paper PMC4166925:
± gives the standard deviation of the averaged measurements. In all, about 33,000 sequences were measured (“E-score (dimensionless, -0.5 to 0.5)”: median about -0.046, highest 2% from about 0.36 on). This is one part of the list.

The sequences below were run on T1, SpTbr T-box DNA-binding domain (GST fusion) (assay: PBM E-score of 8-mer (E-score (dimensionless, -0.5 to 0.5)); Tbr is Tbrain of the sea star Patiria miniata (Pm) or the sea urchin Strongylocentrotus purpuratus (Sp); higher = stronger binding preference; most listed sequences are background and not binding sites). Conditions: the construct has about 5 more residues each side.
T1 sequence: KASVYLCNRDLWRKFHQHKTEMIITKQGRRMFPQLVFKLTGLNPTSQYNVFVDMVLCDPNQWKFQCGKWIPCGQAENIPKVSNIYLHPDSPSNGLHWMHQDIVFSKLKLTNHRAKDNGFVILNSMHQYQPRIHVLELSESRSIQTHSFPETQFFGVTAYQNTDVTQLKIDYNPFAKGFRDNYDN
In short: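 Using the Universal PBM Analysis Suite, every ungapped 8-mer received an enrichment E-score averaged over duplicate arrays. Probe intensities came from double-stranded Universal Agilent oligonucleotide arrays incubated with 200 nM GST-fused Tbr T-box DNA-binding domain in PBS (pH 7.5). That protein was expressed in BL21 E. coli at 20 °C and purified by glutathione affinity chromatography.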

Sequence	PBM E-score of 8-mer
GCCAACGA	0.122 ± 0.025
CCGGAGCG	-0.0436 ± 0.064
CAACGGGC	-0.0832 ± 0.017
CCTGCGTC	-0.1 ± 0.045
CTGTTATA	0.137 ± 0.071
ACGACGAG	0.0618 ± 0.011
AAGCTATT	-0.254 ± 0.023
GATTGTAA	-0.0389 ± 0.047
AAACGGAG	-0.078 ± 0.042
CAACTTAG	0.0415 ± 0.1
CTACGCCA	0.0492 ± 0.042
CCGAAGTC	-0.163 ± 0.017
GCACACCC	0.279 ± 0.022
ACTACGCT	-0.153 ± 0.062
TGCATCCA	0.000615 ± 0.1
TCAGGGCA	-0.168 ± 0.023
TCTGTTAA	0.131 ± 0.02
AAACCCCT	-0.117 ± 0.0024
ATTAGAAC	-0.159 ± 0.04
ACATGAGA	-0.00222 ± 0.05
AGCACGCA	0.122 ± 0.031
GGTAAGCA	-0.0719 ± 0.051

Sequence	PBM E-score of 8-mer
ACGGGTTG	-0.00777 ± 0.037
ATGGGCGC	0.0238 ± 0.11
AGCCTGCG	-0.00705 ± 0.00039
GTCCCCAC	0.0254 ± 0.019
GAGTGGTA	0.0432 ± 0.092
ATGTCAAT	0.118 ± 0.0044
AATCGAAC	-0.112 ± 0.033
ATTTGGGA	-0.224 ± 0.011
ACGTGCCT	-0.0516 ± 0.0046
ATCTTCGG	-0.103 ± 0.0064
GTTACAAC	-0.106 ± 0.12
AAACTAAT	-0.21 ± 0.057
ATCCCATC	-0.191 ± 0.038
GACTAGAA	-0.114 ± 0.02
CTTGGGTA	-0.202 ± 0.013
ATCGGCGG	-0.0323 ± 0.077
CGGACCCC	-0.324 ± 0.016
ACATCAGC	0.00954 ± 0.0068
TATAGGAA	-0.143 ± 0.01
GACTCACC	-0.0566 ± 0.12
GCCACTCA	0.19 ± 0.026
CTTCGAAC	0.0134 ± 0.012

Sequence	PBM E-score of 8-mer
GTATCAGA	-0.15 ± 0.048
GGACTGCA	-0.0104 ± 0.084
CAGTTGTC	0.219 ± 0.011
AGGATGGA	-0.243 ± 0.015
AGTACCCC	-0.1349 ± 0.00026
ATTGCAAT	-0.0496 ± 0.018
ATCGACAA	0.213 ± 0.0072
GGATAACA	0.212 ± 0.014
ACGTTCAA	-0.145 ± 0.032
AGCATGTC	-0.145 ± 0.002
ATATTAGG	-0.142 ± 0.14
ATCAAAGA	-0.185 ± 0.033
GATTCGGC	-0.0689 ± 0.016
CCCTAGAG	-0.059 ± 0.064
GCCTATCC	-0.15 ± 0.12
TAACGACA	0.183 ± 0.023
GTAGCTCA	-0.16 ± 0.041
AAATACAT	-0.0953 ± 0.0026
ACAACTGC	0.2037 ± 0.00041
AGGGACCT	-0.0856 ± 0.051
ATGATCTG	-0.0393 ± 0.0089
CAACATCC	0.0369 ± 0.026

Sequence	PBM E-score of 8-mer
CGACAAGC	0.289 ± 0.0056
CGCTGTGC	-0.0295 ± 0.044
CCGGGAGC	-0.171 ± 0.0072
CCAAAGTA	-0.146 ± 0.011
AGGCTGAG	-0.0453 ± 0.037
CAAACCAC	-0.0733 ± 0.072
ACATCAAT	-0.0979 ± 0.057
GAAGTTAA	0.0639 ± 0.011
AATAACAC	0.294 ± 0.062
GACCAAGC	-0.148 ± 0.036
AAACCCAG	-0.0988 ± 0.024
ACATCAAC	-0.0504 ± 0.083
CCACCAAG	-0.145 ± 0.076
GGACAAAC	-0.0669 ± 0.0088
ATCAATGC	-0.161 ± 0.033
AACATCCA	0.0221 ± 0.013
GAAAAGGA	-0.163 ± 0.063
ATAGCCAG	-0.198 ± 0.013
CCTGATCG	-0.0377 ± 0.024
TCCTGCCA	0.107 ± 0.03
